# Source: PubChem BioAssay AID1461 (National Center for Advancing Translational Sciences (NCATS), 2008)
# The whole screen tested about 220,000 compounds, of which about 2,300 (1%) were called active. Inconclusive results, whose numbers are uncertain, are shown with a selection of clear calls. Calls follow the shape of the dose curve; as a rule, active = well fitted inhibition curve with a large enough effect; inconclusive = small, poorly fitted or top-dose-only effect, or effect the other way; inactive = no such curve, though single readings can be large or run the other way. No potency is given beside an inconclusive call; the fits are too rough.
# Target: Neuropeptide S receptor (Homo sapiens) (UniProt Q6W5P4)
# Test: qHTS Assay for Antagonists of the Neuropeptide S Receptor: cAMP Signal Transduction; also: nearly all actives have a fitted effect of over 50% in size
# Settings: CHO-NPSR cells, cAMP TR-FRET, antagonist mode; activity change, negative = inhibition: at 38.3 µM (top of the series) unless noted
# % is scaled to controls: 0 for no effect and ±100 for the full control effect; potency is read from the fitted curve at half-maximal effect; tags tell the direction and shape of the fitted curve.
# UniProt Q6W5P4, sequence (Q6W5P4 whole entry, looked up): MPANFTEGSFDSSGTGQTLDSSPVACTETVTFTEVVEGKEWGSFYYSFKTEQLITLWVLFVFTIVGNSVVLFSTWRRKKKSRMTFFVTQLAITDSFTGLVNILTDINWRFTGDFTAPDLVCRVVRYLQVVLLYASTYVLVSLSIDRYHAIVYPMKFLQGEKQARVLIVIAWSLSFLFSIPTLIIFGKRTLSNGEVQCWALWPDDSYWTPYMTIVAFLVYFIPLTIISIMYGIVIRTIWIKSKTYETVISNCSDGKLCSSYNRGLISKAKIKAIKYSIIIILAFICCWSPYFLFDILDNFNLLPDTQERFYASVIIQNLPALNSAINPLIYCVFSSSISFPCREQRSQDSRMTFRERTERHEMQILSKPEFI
SMILES,"activity change, negative = inhibition",Potency
COc1nc(N/N=C/c2ccc(-c3ccccc3[N+](=O)[O-])o2)nc(N2CCOCC2)n1,inactive: -6.62%,
N#CCC(=O)NNC(=S)Nc1ccccc1C(F)(F)F,inactive: 1.09%,
CCO[C@H]1OC(C(=O)N2CCCCCCC2)=C[C@@H](C2CCCCC2)[C@@H]1CCCO,,"inconclusive [activator, partial curve]"
CCCCN(CC)S(=O)(=O)c1ccc(C(=O)Nc2nnc(CSC)o2)cc1,inactive: -3.88% [at 46.1 µM],
O=C(c1cc(-c2ccc3c(c2)OCO3)on1)N1CCN(c2ccccc2)CC1,,"inconclusive [inhibitor, partial curve]"
CCC(NC(=O)c1ccccc1NC(=O)c1ccccc1)C(=O)O (stereo not drawn),inactive: -9.27% [at 46.1 µM],
O=C(CSc1nc2c([nH]c3ccccc32)c(=O)n1-c1cccc(Cl)c1)N1CCOCC1,inactive: 2.19% [at 46.1 µM],
CC1(C)CC(=O)C2=C(C1)N(c1cccc(O)c1)C1=C(C2)C(=O)CC(C)(C)C1,inactive: -13.7% [at 46.1 µM],
CC(O)C(NS(=O)(=O)c1ccc(Cl)cc1)C(=O)OCc1nnc(-c2ccccc2)o1 (stereo not drawn),,"inconclusive [inhibitor, single point]"
O=C(Nc1cc(Oc2ccccc2)cc([N+](=O)[O-])c1)C12CC3CC(C1)CC(n1cnc(Cl)n1)(C3)C2,,"inconclusive [inhibitor, partial curve]"
COc1ccc2nc(NC(=O)c3ccc(Br)s3)sc2c1,,"inconclusive [inhibitor, single point]"
COc1cc2c(cc1OC)CN(C(=O)c1ccco1)CC2,inactive: 7.47%,
CCc1ccc(C(=O)CN(C#N)c2nc(C)cc(C)n2)cc1,,"inconclusive [inhibitor, partial curve]"
O=C(NNc1ccc(C(F)(F)F)cc1[N+](=O)[O-])c1ccc(NS(=O)(=O)c2ccc(F)cc2)cc1,,active: 10 µM
Nc1cc2c3c(cccc3c1)C(=O)N(CCN1CCCC1)C2=O,,"inconclusive [activator, partial curve]"
Cc1ccc(NC(=O)CC2SC(=O)N(c3ccccc3)C2=O)cc1 (stereo not drawn),,"inconclusive [inhibitor, single point]"
c1cncc(-c2nc(NCC3COc4ccccc4O3)c3ccccc3n2)c1 (stereo not drawn),,"inconclusive [inhibitor, single point]"
Cc1ccccc1C(=O)N1CCN(c2ccc([N+](=O)[O-])c(NCc3ccco3)c2)CC1,,"inconclusive [inhibitor, partial curve]"
Cc1cccc(N(CC(=O)NC2CCCCC2)C(=O)c2ccc(C)s2)c1,,"inconclusive [inhibitor, single point]"
O=C(CSc1nnnn1-c1ccccc1Cl)Nc1ccc2c(c1)OCCO2,,"inconclusive [inhibitor, single point]"
C=CCn1c(SCC(=O)c2cccs2)nc2sc(CC)cc2c1=O,,"inconclusive [inhibitor, partial curve]"
Cn1c(OCc2cccnc2)nc2c1c(=O)n(Cc1ccc(Br)cc1)c(=O)n2C,,"inconclusive [inhibitor, single point]"
CCN(CC)CCNC(=O)c1sc2ncn(CC(=O)Nc3ccc(C)c(Cl)c3)c(=O)c2c1C,,"inconclusive [inhibitor, single point]"

SMILES,"activity change, negative = inhibition",Potency
Nc1nc(-c2ccccc2)nn1C(=O)Cc1ccccc1,,"inconclusive [inhibitor, single point]"
N#Cc1ccc(CSc2nnc(NC(=O)c3ccc4ncsc4c3)s2)cc1,,"inconclusive [activator, single point]"
c1ccc(Cc2nnc(N3CCCCC3)c3ccccc23)cc1,,"inconclusive [inhibitor, single point]"
CC(C)Nc1nc(Oc2cccc(Cl)c2Cl)cc(C(F)(F)F)n1,,"inconclusive [inhibitor, partial curve]"
CCOc1ccc(NC(=NCc2ccc3c(c2)OCO3)SC2CC(=O)N(c3ccccc3)C2=O)cc1 (stereo not drawn),,"inconclusive [inhibitor, partial curve]"
CCOC(=O)c1cnc2ccc(C(=O)OC)cc2c1NCc1ccco1,,"inconclusive [activator, single point]"
COCc1cc(C)nc(Nc2ccc(C)cc2C)c1C#N,,"inconclusive [activator, single point]"
COC(=O)CSc1ncccc1-c1nc2ccccc2[nH]1,,"inconclusive [activator, partial curve]"
NNC(=O)CN1C(c2cccc(Cl)c2)=Nc2ccc(Br)cc2C1c1ccccc1 (stereo not drawn),,"inconclusive [inhibitor, single point]"
C=CCn1c(SCc2nc3cc(C(=O)OC)ccc3c(=O)[nH]2)nc2sc(CC)cc2c1=O,,"inconclusive [inhibitor, single point]"
CCN1C(=O)c2cccc3c(N)ccc1c23,,"inconclusive [inhibitor, partial curve]"
CC1(C)Cc2c(sc(NC(=S)NC(=O)c3ccccc3)c2C(=O)O)CO1,inactive: -34.1%,
COc1ccc(C[C@H]2CN3C(=NC[C@H]3Cc3ccccc3)N2CCNC(=O)CCC2CCCCC2)cc1,,"inconclusive [activator, single point]"
O=C(C[n+]1cn(C(F)F)c2ccccc21)c1ccc(OC(F)F)cc1,inactive: -59.4%,
COc1cc(OC)c(C2C(C#N)=C(N)OC3=C2C(=O)CC(C)C3)cc1OC (stereo not drawn),,"inconclusive [inhibitor, single point]"
CC(=O)NCCn1c(SCC(=O)c2ccccc2)nc2ccccc2c1=O,,"inconclusive [inhibitor, partial curve, poor fit]"
CCc1c(C)nc(SCC(=O)c2cccs2)c(C#N)c1C,inactive: -27.9% [at 46.1 µM],
COc1ccc(C(=O)O)cc1S(=O)(=O)NC(C)C,,"inconclusive [activator, single point]"
CCOC(=O)c1ccc(NC(=O)CSc2ccc(-c3ccncc3)nn2)cc1,,"inconclusive [inhibitor, single point]"
Cc1ccc(Nc2nc(OC(C(F)(F)F)C(F)(F)F)nc(N3CCOCC3)n2)cc1,,"inconclusive [inhibitor, single point]"
CC(=O)O[C@H]1CC[C@@]2(C)C(CCC3C2CC[C@]2(C)OC(=O)CCC32)C1 (stereo partly drawn),inactive: -10.2%,
CCOC(=O)c1ccc(NC(=O)c2nc[nH]c2C(=O)N[C@@H](C)C(=O)OC(C)(C)C)cc1,,"inconclusive [inhibitor, single point]"
N#Cc1c(NC2CCCCC2)nc(-c2ccco2)c2c1CCCC2,,"inconclusive [inhibitor, single point]"

SMILES,"activity change, negative = inhibition",Potency
CC1CCCCN1S(=O)(=O)c1ccc(S(=O)(=O)N(Cc2ccccc2)Cc2ccco2)cc1 (stereo not drawn),,"inconclusive [inhibitor, partial curve]"
Cc1sc2c(c1C)C(=O)NC(c1cccc(O)c1)N2 (stereo not drawn),,"inconclusive [inhibitor, partial curve, poor fit]"
COc1cc(C2C3C(=O)N(Cc4ccccc4)C(=O)C3ON2c2ccccc2)cc(OC)c1OC (stereo not drawn),,"inconclusive [inhibitor, single point]"
O=C(Nc1ccccc1)C1=C[C@H](c2csc3ccccc23)C[C@H](OCc2ccc(CO)cc2)O1,,"inconclusive [activator, full curve]"
Cc1cc(C)cc(OCC(=O)Nc2ccccc2N2CCCCC2)c1,,"inconclusive [inhibitor, single point]"
Cc1ccc(S(=O)(=O)N2CCN(c3ccccn3)CC2)cc1,inactive: -0.144%,
Cc1cc(C)n(-c2ccc(C(=O)NC(C)C)cc2)n1,inactive: 19.1% [at 46.1 µM],
CN(Cc1ccccc1)C(=O)c1nc2ccccn2c1CN1CCC(N2CCOCC2)CC1,inactive: 16.4%,
Nc1ccc2c(c1)OCCOCCOCCOCCOCCO2,inactive: -0.106%,
O=C(Nc1nc(-c2cc3ccccc3o2)cs1)c1ccc(S(=O)(=O)N2CCCC2)cc1,inactive: -17.2%,
O=C(Cc1c(F)cccc1Cl)Nc1ccccc1N1CCCCC1,,"inconclusive [inhibitor, single point]"
COc1cc(/C=C2/SC(=O)NC2=O)ccc1Oc1ccc([N+](=O)[O-])cc1[N+](=O)[O-],,active: 12.6 µM
Cc1ccc(Sc2c(C(=O)Nc3ccc(F)cc3F)c(C(F)(F)F)nn2C)cc1,,"inconclusive [inhibitor, single point]"
CC12CCC(C(=O)Nc3ccccc3-n3cccc3)(CC1=O)C2(C)C (stereo not drawn),,"inconclusive [activator, partial curve, poor fit]"
O=S(=O)(CCOc1ccccc1)c1nc2ccccc2[nH]1,inactive: 5.78% [at 46.1 µM],
CCCCN(Cc1cc2cc(OC)ccc2[nH]c1=O)C(=O)c1ccccn1,,"inconclusive [inhibitor, partial curve]"
OC(CNC1Cc2ccccc2C1)COc1ccc(Cl)cc1 (stereo not drawn),inactive: -18%,
Cc1[nH]c2ccccc2c1SCc1nnc(SCc2ccc(Cl)cc2)n1C,,"inconclusive [activator, single point]"
CSc1nc2ccc(NS(=O)(=O)c3ccc(Br)s3)cc2s1,,"inconclusive [activator, single point]"
CN(Cc1ccco1)C(=O)c1ccc(N2CCCC2=O)cc1,,"inconclusive [inhibitor, single point]"
O=C(O)CCn1cc(/C=C/C(=O)c2ccc(Cl)cc2)c(-c2ccc(Br)cc2)n1,,"inconclusive [inhibitor, single point]"
CC1CCN(C(c2ccc(N(C)C)cc2)c2nnnn2C(C)(C)C)CC1 (stereo not drawn),inactive: -0.865% [at 46.1 µM],
